Values joined by “and” are separate entries in the source; they are usually repeats but may differ in a detail not shown here. Equal values may be shown once. Where a name gives a salt, the structure may show the parent alone. ± gives the standard deviation of the averaged measurements. Over roughly 2,600 compounds, “total cell number (DAPI+ nuclei) relative to DMSO vehicle control” has its median near -1.4; the lowest 2% begin near -23. The list shows a part of the results.
System: jimpy (Plp1 jimpy) mouse iPSC-derived oligodendrocyte progenitor cells
Test: total cell number (DAPI+ nuclei) relative to DMSO vehicle control (SDs above negative control mean); higher = more surviving cells
Conditions: 10 µM; 3 days

| SMILES | total cell number |
| --- | --- |
| c1ccc(NCc2ccc(CNc3ccccn3)cc2)nc1 | -3.52 |
| NCCC[C@](N)(C(=O)O)C(F)F (racemic) [DL-alpha-Difluoromethylornithine hydrochloride] | -1.15 |
| Cc1nnc(C(=O)NC(C)(C)c2nc(C(=O)NCc3ccc(F)cc3)c(O)c(=O)n2C)o1 [Raltegravir (MK-0518)] | 20.5 |
| CS(=O)(=O)N1CCc2c(-c3cnc(N)nc3)nc(N3CCOCC3)nc21 | -9.93 |
| Cn1ccc2cc(NC(=O)Nc3cccnc3)ccc21 | -2.19 |
| CC(=O)[C@]1(O)Cc2c(O)c3c(c(O)c2[C@@H](O[C@H]2C[C@H](N)[C@H](O)[C@H](C)O2)C1)C(=O)c1ccccc1C3=O [Idarubicin] | 9.25 |
| CC(=O)[C@]1(O)Cc2c(O)c3c(c(O)c2[C@@H](O[C@H]2C[C@H](N)[C@H](O)[C@H](C)O2)C1)C(=O)c1ccccc1C3=O [Idarubicin HCl] | 38.4 |
| Cc1nc(=O)c2cc(CN(C)c3ccc(C(=O)N[C@@H](CCC(=O)O)C(=O)O)s3)ccc2[nH]1 [Raltitrexed] | 0.684 |
| CN1CCN(CCCN2c3ccccc3Sc3ccc(Cl)cc32)CC1 [Prochlorperazine dimaleate] | -10.5 |
| CC(/C=C1\SC(=S)N(CC(=O)O)C1=O)=C\c1ccccc1 [Epalrestat] | -1.67 ± 0.58 |
| O=C1c2ccccc2C(=O)c2c1ccc(O)c2O [Alizarin] | 0.306 |
| N[C@@H]1[C@H]2CN(c3nc4c(cc3F)c(=O)c(C(=O)O)cn4-c3ccc(F)cc3F)C[C@@H]12 [Trovafloxacin mesylate] | 0.819 |
| C[C@H](CCC(=O)O)[C@H]1CC[C@H]2[C@@H]3[C@H](O)C[C@@H]4C[C@H](O)CC[C@]4(C)[C@H]3CC[C@]12C [Chenodeoxycholic Acid] | -0.33 |
| O=C(/C=C/c1ccc(O)c(O)c1)OCCc1ccccc1 [Caffeic acid phenethyl ester] | -9.73 |
| O=C(/C=C/c1ccc(O)c(O)c1)OCCc1ccccc1 [Caffeic Acid Phenethyl Ester] | -11.9 |
| C=CC(=O)Nc1cccc(Oc2nc(Nc3ccc(N4CCN(C)CC4)cc3OC)ncc2Cl)c1 | -24.9 |
| COc1ccc([C@@H]2CC(=O)c3c(O)cc(O[C@@H]4O[C@H](CO)[C@@H](O)[C@H](O)[C@H]4O[C@@H]4O[C@@H](C)[C@H](O)[C@@H](O)[C@H]4O)cc3O2)cc1O [Neohesperidin] | -0.222 |
| CC(=O)OCC(CCn1cnc2cnc(N)nc21)COC(C)=O [Famciclovir] | -0.473 ± 1.5 |
| NNc1nncc2ccccc12 [Hydralazine HCl] | -0.661 |
| NNc1nncc2ccccc12 [Hydralazine hydrochloride] | -0.483 |
| CC[C@H](C)C(=O)O[C@H]1CCC=C2C=C[C@H](C)[C@H](CC[C@@H]3C[C@@H](O)CC(=O)O3)[C@H]21 [Mevastatin] | -6.13 ± 1.6 |
| Nc1cc(C(Cl)=C(Cl)Cl)c(S(N)(=O)=O)cc1S(N)(=O)=O [Clorsulon] | -0.558 |
| Nc1nc2ccc(Cl)cc2c2nc(-c3ccco3)nn12 | 0.464 |
| CCC(C)N(C)C(=O)c1cc2ccccc2c(-c2ccccc2Cl)n1 (stereo not given) | -1.57 |
| C[C@@H]1CCN(C(=O)CC#N)C[C@@H]1N(C)c1ncnc2[nH]ccc12 | -2.49 and -3.98 |

| SMILES | total cell number |
| --- | --- |
| CCOC(=O)Nc1cc(-c2ccc(C)c(NS(C)(=O)=O)c2)nn2c(C)nnc12 [Bromosporine] | -13.2 |
| Cc1cc2c(F)c(Oc3ncnn4cc(OC[C@@H](C)OC(=O)[C@H](C)N)c(C)c34)ccc2[nH]1 | -4.11 |
| O=c1[nH]c(=O)n(C2CCCO2)cc1F (stereo not given) [Tegafur] | -9.13 |
| COc1ccc([C@]2(C#N)CC[C@@H](C(=O)O)CC2)cc1OC1CCCC1 [Cilomilast] | -0.987 |
| Nc1ncnc2c1c(-c1ccc(Oc3ccccc3)cc1)cn2C1CCCC1 | -5.56 |
| COCC[n+]1c2c(n(Cc3cnccn3)c1C)C(=O)c1ccccc1C2=O [YM155 (Sepantronium Bromide)] | -27.7 |
| O=C(NCCO)c1cccc(-c2cc(Nc3ccc(OC(F)(F)F)cc3)ncn2)c1 | -2.65 |
| O=S(=O)(O)NC1CCCCC1 [Cyclamic  acid] | -1.78 |
| O=C1c2ccc(Nc3ccc(F)cc3F)cc2CCc2ccc(OC[C@H](O)CO)cc21 [Skepinone-L] | -0.735 |
| NC(=O)C(c1ccccc1)(c1ccccc1)[C@@H]1CCN(CCc2ccc3c(c2)CCO3)C1 [Darifenacin HBr] | -6.77 |
| CCCNCC(O)COc1ccccc1C(=O)CCc1ccccc1 (stereo not given) [Propafenone HCl] | -0.28 |
| CCCNCC(O)COc1ccccc1C(=O)CCc1ccccc1 (stereo not given) [Propafenone hydrochloride] | -2.01 |
| COc1cc([C@@H]2c3cc4c(cc3[C@@H](O[C@@H]3O[C@@H]5CO[C@@H](C)O[C@H]5[C@H](O)[C@H]3O)[C@H]3COC(=O)[C@H]23)OCO4)cc(OC)c1O [Etoposide] | -15.2 ± 8.5 |
| COc1cc(/C=C(\C#N)C(=O)Nc2nnc(C(F)(F)F)s2)ccc1OCc1ccc(C(F)(F)F)cc1C(F)(F)F | -0.657 |
| O=[N+]([O-])c1cccc2cn[nH]c12 [7-Nitroindazole] | -1.22 |
| COc1ccccc1OCC(O)CN1CCN(CC(=O)Nc2c(C)cccc2C)CC1 (stereo not given) [Ranolazine] | 0.205 |
| COc1ccccc1OCC(O)CN1CCN(CC(=O)Nc2c(C)cccc2C)CC1 (stereo not given) [Ranolazine 2HCl] | 0.63 |
| COc1ccccc1OCC(O)CN1CCN(CC(=O)Nc2c(C)cccc2C)CC1 (stereo not given) [Ranolazine dihydrochloride] | -1.32 |
| C[C@H]1C[C@@H]2[C@H]([C@@H](O)C[C@@]3(C)[C@H]2CC[C@]3(O)C(=O)CO)[C@@]2(C)C=CC(=O)C=C12 [Methylprednisolone] | 5.96 |
| COc1cc2c(Oc3ccc4[nH]c(C)cc4c3F)ncnc2cc1OCCCN1CCCC1 [Cediranib (AZD2171)] | -26.9 |
| CC(=O)O[C@]1(C(C)=O)CC[C@H]2[C@@H]3C[C@H](C)C4=CC(=O)CC[C@]4(C)[C@H]3CC[C@@]21C [Medroxyprogesterone acetate] | 6.72 |
| O=C(O)c1cc(-c2ccccc2)nc2ccccc12 [Cinchophen] | 1.06 |
| Nc1nc2c(nc(Br)n2C2OC3COP(=O)(O)O[C@@H]3C2O)c(=O)[nH]1 (stereo not given in full) [8-Bromo-cGMP sodium] | -3.71 |
| Nc1nc2n[nH]nc2c(=O)[nH]1 [Azaguanine-8] | -0.157 |
| COc1cc2c(cc1-c1c(C)noc1C)ncc1[nH]c(=O)n([C@H](C)c3ccccn3)c12 | -7.07 and -7.8 |

| SMILES | total cell number |
| --- | --- |
| CN(C)c1nc(N(C)C)nc(N(C)C)n1 [Altretamine] | -0.0239 ± 0.24 |
| N[C@H](C(=O)O)[C@H](O)c1ccc(O)c(O)c1 | -1.4 |
| CCOC(=O)[C@H](CCc1ccccc1)N[C@H]1CS[C@H](c2cccs2)CN(CC(=O)O)C1=O [Temocapril HCl] | 1.77 |
| CCCCC(F)(F)[C@@]1(O)CC[C@H]2[C@@H](CC(=O)[C@@H]2CCCCCCC(=O)O)O1 [Lubiprostone] | 7.06 |
| COc1ccc(F)c(F)c1C(=O)c1cnc(NC2CCN(S(C)(=O)=O)CC2)nc1N | -11.6 |
| O=S(=O)(O)c1cc(O)ccc1O [Ethamsylate] | -1.12 |
| CC(C)C[C@H](NP(=O)(O)O[C@H]1O[C@H](C)[C@@H](O)[C@H](O)[C@@H]1O)C(=O)N[C@@H](Cc1c[nH]c2ccccc12)C(=O)O [Phosphoramidon disodium] | -1.28 |
| CCC(=O)O[C@]1(C(=O)CCl)[C@@H](C)C[C@H]2[C@@H]3CCC4=CC(=O)C=C[C@]4(C)[C@@]3(F)[C@@H](O)C[C@@]21C [Clobetasol propionate] | 6.81 |
| O=C1C[C@@H](c2ccc(O)cc2)Oc2cc(O)cc(O)c21 [Naringenin] | -0.134 |
| CC(=O)Nc1nc(C)c(-c2ccc(Cl)c(S(=O)(=O)NCCO)c2)s1 | -15.8 |
| CC(/C=C/c1cccc(Oc2ccc(F)cc2)c1)N(O)C(N)=O (stereo not given) | -3.01 |
| O=c1c(O)c(-c2ccc(O)cc2O)oc2cc(O)cc(O)c12 [Morin Hydrate] | 0.628 |
| O=c1c(O)c(-c2ccc(O)cc2O)oc2cc(O)cc(O)c12 [Morin] | -2.03 |
| COc1ccc(C2CNC(=O)C2)cc1OC1CCCC1 (stereo not given) [Rolipram] | -1.19 ± 0.055 |
| OC[C@H]1O[C@@H](Oc2cc(O)cc(/C=C/c3ccc(O)cc3)c2)[C@H](O)[C@@H](O)[C@@H]1O [Polydatin] | -3.83 |
| CCCCCCCCCCCCCCCC(=O)O[C@@H]1[C@@H](O)[C@@H](O)[C@@H]([C@H](NC(=O)[C@@H]2C[C@@H](CCC)CN2C)[C@H](C)Cl)O[C@@H]1SC [Clindamycin palmitate HCl] | -2.86 |
| O=C(O)C1=CCCNC1 [Guvacine hydrochloride] | -0.544 |
| CC(=O)Nc1ncc([N+](=O)[O-])s1 [Nithiamide] | -1.51 |
| O=C(NOCC1CC1)c1cc(Br)c(F)c(F)c1Nc1ccc(I)cc1Cl | -4.21 |
| Nc1ncnc2c1nc(Sc1ccc(Cl)cc1)n2C1OC2COP(=O)(O)O[C@@H]2[C@@H]1O (stereo not given in full) [8-(4-Chlorophenylthio)-cAMP sodium] | -2.6 |
| CCC(=O)c1c(O)cc(O)cc1O [Flopropione] | 3.54 |
| C=CC(=O)Nc1ccc2ncnc(Nc3cccc(Br)c3)c2c1 | -13.1 |
| CC(C)(C)[C@]1(O)CCN2C[C@H]3c4ccccc4CCc4cccc(c43)[C@@H]2C1 [(+)-Butaclamol hydrochloride] | -2.89 |
| CC(C)(C)[C@]1(O)CCN2C[C@H]3c4ccccc4CCc4cccc(c43)[C@@H]2C1 (racemic) [(±)-Butaclamol hydrochloride] | -0.0241 |
| Nc1nc2[nH]c(=O)cnc2c(=O)[nH]1 [Isoxanthopterin] | -0.472 |
